# Reference: PubChem BioAssay AID1345083 (National Center for Advancing Translational Sciences (NCATS), 2018)
# Screen size: about 94,000 compounds; about 6,200 (6.6%) were called active. The inconclusive results got no clear call from the source; some entries with a clear call stand among them for comparison. Calls follow the shape of the dose curve; as a rule, active = well fitted inhibition curve with a large enough effect; inconclusive = small, poorly fitted or top-dose-only effect; inactive = flat fitted curve, though single readings scatter. Potencies of inconclusive entries are doubtful fits and often do not repeat.
# Assay: Cytotoxic Profiling in HEK 293 Cell Line of Diverse Libraries Using Quantitative High-Throughput Screening; also: nearly all actives have a fitted effect of over 60% in size
# Conditions: HEK 293 viability, ATP luminescence (CellTiter-Glo), 48-72 h; series mostly up to 115 µM
# How it was run: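 HEK 293 seeded at 250 cells/well receive compound via pintool. After 48 or 72 hr at 37 degree Celsius, 5% CO2 and 95% humidity, CellTiter-Glo is dispensed and luminescence read following 10 min at room temperature.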
# Potency is read from the fitted curve at half-maximal effect; tags tell the direction and shape of the fitted curve.
row,Structure (SMILES),Potency
1,O=C(NC1CCN(c2ccnc3ccnn23)C1)c1ccc(F)cc1 (stereo unspecified),"inconclusive: 39.8 µM [inhibitor, partial curve, poor fit]"
2,CC(C)(Oc1nn(CC2CCOCC2)c2ccccc12)C(=O)NCCc1ccccc1,active: 100 µM
3,CN(CCNC(=O)c1cc2cn(C3CC3)cc2s1)C1CCCCC1,inactive
4,O=C(NCc1nnc2cc(-c3nc(C4CC4)no3)ccn12)c1ccccc1F,"inconclusive: 5.62 µM [inhibitor, full curve, poor fit]"
5,COc1ccc(-c2noc([C@@H]3CCCN3C(=O)Cc3ccccc3C)n2)cc1OC,"inconclusive: 89.1 µM [inhibitor, single point]"
6,CC1=C[C@@H](CNCCN2CCOCC2)[C@H](C(C)C)C[C@H]1Cc1nnc(-c2ccccc2)o1,"inconclusive: 50.1 µM [inhibitor, partial curve, poor fit]"
7,COC[C@@]12CN(Cc3ccc(C(=O)OC)cc3)C[C@@H]1C(C)(C)COc1ccc(OC)cc12,"inconclusive: 50.1 µM [inhibitor, partial curve, poor fit]"
8,CCOC(=O)c1cccc(NC(=O)N2CC[C@@H](CC(=O)NCCOC)[C@@H](CC)C2)c1,inactive
9,CO[C@H]1C(=O)N(C(C)C)[C@H]1C1CCN(C(=O)c2cnc(C)cn2)CC1,inactive
10,CCN(CC1CCOCC1)C(=O)c1cccnc1SC/C=C/c1ccccc1,"inconclusive: 50.1 µM [inhibitor, partial curve, poor fit]"
11,Cc1ccsc1C(=O)N1CCC(n2cc(-c3nc(-c4ccccc4)no3)nn2)C1 (stereo unspecified),"inconclusive: 50.1 µM [inhibitor, partial curve, poor fit]"
12,COc1ccc(-c2cc(CC3(NCCC(C)C)COC3)no2)cc1,"inconclusive: 89.1 µM [inhibitor, partial curve, poor fit]"
13,Cc1cc(F)ccc1-c1[nH]nc2ncc(-c3cnn(C)c3)nc12,"inconclusive: 28.2 µM [inhibitor, partial curve]"
14,O=C(NCC1CCCO1)C1CCN(c2cc(C(F)(F)F)ncn2)CC1 (stereo unspecified),"inconclusive: 79.4 µM [inhibitor, single point]"
15,CN(C(=O)c1cccc2ccccc12)C1CCCN(C2Cc3ccccc3C2)C1 (stereo unspecified),"inconclusive: 63.1 µM [inhibitor, partial curve, poor fit]"
16,O=C(Nc1ccc(Cl)cc1)N1CCn2c(nnc2-c2ccccc2)C1,inactive
17,C=CCC1(C(=O)O)CCCN(C(=O)c2cn(CCN)nn2)C1 (stereo unspecified),inactive
18,Cc1cccnc1NCCNc1nc(C(C)C)nc2c1cnn2C,"inconclusive: 50.1 µM [inhibitor, partial curve, poor fit]"
19,Cc1cc2ncc(C(=O)NCc3cccc4ccccc34)cn2n1,"inconclusive: 89.1 µM [inhibitor, partial curve]"
20,O=C(NCc1nnc2n1C(C(=O)NCc1ccc(F)cc1)CC2)c1ccccc1 (stereo unspecified),inactive
21,O=C1C[C@@H]2CCN(C(=O)C3CC3)C[C@@H]2CCN1Cc1ccc2c(c1)OCO2,"inconclusive: 112 µM [inhibitor, single point]"

row,Structure (SMILES),Potency
1,Cn1cc(C(O)c2nc(Nc3ccc(OC(F)(F)F)cc3)n[nH]2)cn1 (stereo unspecified),active: 112 µM
2,O=C(NCCc1ccc(Cl)cc1)c1ccc2nnc(-c3ccc(Cl)cc3)n2c1,"inconclusive: 50.1 µM [inhibitor, partial curve, poor fit]"
3,CN1CCCCC(CC(=O)N2CCCc3ccccc32)C1=O (stereo unspecified),inactive
4,COc1ccc(C2(C(=O)N3CCC4(CC3)C(OC)C(=O)N4c3cccc(F)c3)CC2)cc1 (stereo unspecified),"inconclusive: 50.1 µM [inhibitor, partial curve, poor fit]"
5,COc1ccc(NC(=O)N2CCCN(C)c3ccccc32)c(C)c1,inactive
6,O=S(=O)(c1ccccc1F)N1CC(c2nc(-c3ccncc3)no2)C1,"inconclusive: 50.1 µM [inhibitor, partial curve, poor fit]"
7,O=C1NC(=NC2CCCC2)C2(CCCN(Cc3ccsc3)C2)N1c1cc(F)cc(F)c1 (stereo unspecified),"inconclusive: 89.1 µM [inhibitor, partial curve, poor fit]"
8,COC1CN(c2cccc(F)c2)C12CCN(C(=O)C1CCC1)CC2 (stereo unspecified),"inconclusive: 50.1 µM [inhibitor, partial curve, poor fit]"
9,Cc1nc2n(c1C(=O)Nc1nccs1)CCC(Nc1ccccc1)C2 (stereo unspecified),"inconclusive: 100 µM [inhibitor, partial curve]"
10,O=C(NCc1ccc(F)cc1Cl)c1cc2n(n1)CC(c1ccc3c(c1)OCO3)OC2 (stereo unspecified),"inconclusive: 50.1 µM [inhibitor, partial curve, poor fit]"
11,CC(C)c1noc(CC2CCN(C(=O)c3ccccc3Cl)CC2)n1,"inconclusive: 35.5 µM [inhibitor, partial curve]"
12,O=C(Nc1ccc2c(N3CCCC3)ncnc2c1)c1cccc(Br)c1,"inconclusive: 8.91 µM [inhibitor, full curve, poor fit]"
13,Cc1ccc(Cl)cc1-n1nc(-c2c(C)nc3scc(CC(=O)NCCC(C)C)n3c2=O)cc1C,"inconclusive: 50.1 µM [inhibitor, partial curve, poor fit]"
14,COC1CCC12CCN(C(=O)c1nccc3ccccc13)CC2 (stereo unspecified),inactive
15,Cc1cc(C)n(CCC(=O)NCC2CCN(c3cc(-c4ccc(F)cc4)[nH]n3)CC2)n1,"inconclusive: 79.4 µM [inhibitor, single point]"
16,COc1ccccc1NC(=O)N1CC(C(=O)NCC2CC2)CC(c2ccccc2)C1 (stereo unspecified),"inconclusive: 50.1 µM [inhibitor, partial curve, poor fit]"
17,CCNC(=O)CCc1c(C)nn(-c2ccc(F)cc2)c1Oc1ccc(F)cc1F,"inconclusive: 50.1 µM [inhibitor, partial curve, poor fit]"
18,O=C(Cc1ccccc1F)N1CCOc2ccc(CN3CCc4ccccc4C3)cc2C1,active: 44.7 µM
19,O=C(c1cccc(C(F)(F)F)c1)N1CCOCC2(CN(Cc3cc(F)cc(F)c3)C2)C1,inactive
20,CCOC(=O)C1CCN(C(=O)c2ccc3nnc(Cc4ccco4)n3c2)CC1,inactive
